Results reported in publication PMC7819943, “Rice protein-binding microarrays: a tool to detect cis-acting elements near promoter regions in rice”.
This is one part of the list.

What follows are sequences tested against T1, OsWOX13 (Oryza sativa, UniProt Q5QMM3 1-267) (assay: protein-binding microarray (RPBM); PBS, 2% BSA, 51.3 ng/ul salmon testes DNA, 50 uM zinc acetate, 200 nM TF, 25 C, 1 h; high values mean tight binding). Conditions: protein: recombinant; tags: N-terminal polyhistidine and DsRed monomer fusion (pET32a); label: CyDye5-dUTP incorporated in the synthesized complementary strand; 3' TTTTT single-stranded linker to array surface; dsDNA, one strand shown.
T1 sequence: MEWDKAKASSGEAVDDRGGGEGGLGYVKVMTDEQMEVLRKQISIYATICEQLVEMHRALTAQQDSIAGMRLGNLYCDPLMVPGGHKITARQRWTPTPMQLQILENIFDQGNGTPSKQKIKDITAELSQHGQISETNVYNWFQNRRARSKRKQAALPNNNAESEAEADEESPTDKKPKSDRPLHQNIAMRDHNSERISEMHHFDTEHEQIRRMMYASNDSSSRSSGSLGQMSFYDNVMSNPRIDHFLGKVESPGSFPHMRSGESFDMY
Outline: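 The binding signal for each feature is its fluorescence intensity in arbitrary units. An Axon 4000B scanner was used to read a custom Agilent array that had been made double-stranded with Cy5-dUTP primer extension, blocked with 2% BSA, incubated at 25 °C for 1 h with 200 nM protein in PBS, 2% BSA, salmon testes DNA and 50 µM zinc acetate, and washed. The protein was an N-terminal polyhistidine–DsRed transcription factor fusion from E. coli BL21-CodonPlus, purified on Ni–NTA.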
For “GATGATTGCCTGTGTGCCCTTGGTACTTGTGTGGAAGGTGCGGAGTCACCTAGTGCAG”, the binding signal was 34200 fluorescence intensity (a.u.). With “TGTAGATTGCTCGTAGGCCATAGTGACGCCAACCCTCGCCCGGAGTCACCTAGTGCAG” the binding signal was 7800 fluorescence intensity (a.u.). In the case of “CGAAATTATAATGATTAAACAAAATTGATCGATATAACTACGGAGTCACCTAGTGCAG”, the binding signal is reported as 41000 fluorescence intensity (a.u.). “ACTAATTTCATAACTTGCCTGGAAACCACAAGACGAATCTCGGAGTCACCTAGTGCAG” was tested, and the binding signal was 9770 fluorescence intensity (a.u.). In the case of “GGTATAGATTAACTACAGCCTTATTATTTTCATTTTGTAACGGAGTCACCTAGTGCAG”, the binding signal is reported as 3530 fluorescence intensity (a.u.). “ACTGAATTGATACAATGTGATGTGTAAGAACCAAGGTTGTCGGAGTCACCTAGTGCAG” was tested, and the binding signal was 19600 fluorescence intensity (a.u.). In the case of “CTAAAATTACATATGTAATTTAGGCACTTACATATGTAATCGGAGTCACCTAGTGCAG”, the binding signal is reported as 19500 fluorescence intensity (a.u.). With “CAAATACACGTAAACAAATTGACATGAGTCGACGCCTCCGCGGAGTCACCTAGTGCAG” the binding signal was 16300 fluorescence intensity (a.u.). For “TGTGAAATAGTGATTTGCAGTTTTACTGTAGTAAACAGTGCGGAGTCACCTAGTGCAG”, the binding signal was 8590 fluorescence intensity (a.u.). “TATATTTATCAAATTAGTTTTATTAAATTAATAATTAAATCGGAGTCACCTAGTGCAG” was tested, and the binding signal was 3330 fluorescence intensity (a.u.). “AAAATTAAATTCTCATCTTAATCTCATCATCAATTCTCTTCGGAGTCACCTAGTGCAG” was tested, and the binding signal was 4810 fluorescence intensity (a.u.). In the case of “CAATTGATGTATCGAATCTTAATTAAGCCATGTATGGACACGGAGTCACCTAGTGCAG”, the binding signal is reported as 8830 fluorescence intensity (a.u.). With “ACATCACTTACCAATAATCACTGACCATGCACATTTTCGACGGAGTCACCTAGTGCAG” the binding signal was 3470 fluorescence intensity (a.u.). In the case of “TTTGACGAGATAGAATATACTTTCTGAAGATGCCGAGGCTCGGAGTCACCTAGTGCAG”, the binding signal is reported as 9390 fluorescence intensity (a.u.). For “ATTATCGCATGATTGATTAAGCATTAGCTATTACAAACTTCGGAGTCACCTAGTGCAG”, the binding signal was 37100 fluorescence intensity (a.u.). “CCAAATTATACGTGCGGCCTATTTATGCGTATGGGCCTTTCGGAGTCACCTAGTGCAG” was tested, and the binding signal was 8940 fluorescence intensity (a.u.). With “ACAAATTAAAGTAACAATCTGGACCGTTGATTATACGTGGCGGAGTCACCTAGTGCAG” the binding signal was 21800 fluorescence intensity (a.u.). In the case of “ATTTATTAATATTAATATTATTGTGGGAAATTTTAGAATGCGGAGTCACCTAGTGCAG”, the binding signal is reported as 3460 fluorescence intensity (a.u.). With “CGGCTAATTAATTTATATTTCTATATGTATTGACCCTGTTCGGAGTCACCTAGTGCAG” the binding signal was 61100 fluorescence intensity (a.u.). With “GTGATTATTTCGACAGTGTTCATATTGTTTATCCCCTATTCGGAGTCACCTAGTGCAG” the binding signal was 8610 fluorescence intensity (a.u.). “TTAAATTTGGATGATAATTATAATCGAAAAGATGAGGAGGCGGAGTCACCTAGTGCAG” was tested, and the binding signal was 39000 fluorescence intensity (a.u.). “TGCAAATCACGCCCAAATTGCCCAAGTTATTGGTCGCCGACGGAGTCACCTAGTGCAG” was tested, and the binding signal was 17000 fluorescence intensity (a.u.). With “GACTTGATAATTACCTTATTCTGTGTTCTGTGATAGCCTTCGGAGTCACCTAGTGCAG” the binding signal was 12200 fluorescence intensity (a.u.). With “AAGTTAGATTATAATGATATAATATATATACTATACAAATCGGAGTCACCTAGTGCAG” the binding signal was 6480 fluorescence intensity (a.u.). “TGGAATTATGGCAAACTAATGTGTAATTCTTACCTGTAACCGGAGTCACCTAGTGCAG” was tested, and the binding signal was 3390 fluorescence intensity (a.u.). In the case of “GTAGGCTCCAGTACATCAATCAGCCCCTTGTTACCACCACCGGAGTCACCTAGTGCAG”, the binding signal is reported as 4100 fluorescence intensity (a.u.). “GACTAATTAAATAAAATGTTGAAATCATTATAAGGAAGAACGGAGTCACCTAGTGCAG” was tested, and the binding signal was 28100 fluorescence intensity (a.u.). “CAAATAAATTATTCACTTATTATCCTCTCCCACCTGGTTCCGGAGTCACCTAGTGCAG” was tested, and the binding signal was 22100 fluorescence intensity (a.u.). “TCGAAATGGAATTTTCAGTTTCAGACGAGATTCCGGAGACCGGAGTCACCTAGTGCAG” was tested, and the binding signal was 3160 fluorescence intensity (a.u.). “TTTGAAGATTTAATTGTAACGAATTTAATGGTGCAATCGGCGGAGTCACCTAGTGCAG” was tested, and the binding signal was 20800 fluorescence intensity (a.u.). In the case of “TGCTACTCTACACAAATGATTGTTCCAATTTAAATAATCACGGAGTCACCTAGTGCAG”, the binding signal is reported as 5480 fluorescence intensity (a.u.). “TGCACTTTAATTAAACCCACCTAAAATTTCATAATCCACACGGAGTCACCTAGTGCAG” was tested, and the binding signal was 5370 fluorescence intensity (a.u.). For “TGTTTGATTTCATCCCGATTAATTACTAGTTTTCGGAATGCGGAGTCACCTAGTGCAG”, the binding signal was 18100 fluorescence intensity (a.u.). “AACGCAAATTAATGAATGTGCAAGCGTATGTGTACATGGCCGGAGTCACCTAGTGCAG” was tested, and the binding signal was 14800 fluorescence intensity (a.u.). With “ATTGAGACATGCAATCATCCTCTCTTTATTTCTACTGCTACGGAGTCACCTAGTGCAG” the binding signal was 3920 fluorescence intensity (a.u.). In the case of “TAAATTTTGACTGATAAGTATAAGTATAAGCGAAAAGATTCGGAGTCACCTAGTGCAG”, the binding signal is reported as 12400 fluorescence intensity (a.u.). With “GATATGATATTGACACATGATATGTAATTATATATAGAGCCGGAGTCACCTAGTGCAG” the binding signal was 11400 fluorescence intensity (a.u.). In the case of “TAAATCATGGTGAAATTAGATTTAAAAGATTCATCTTGTACGGAGTCACCTAGTGCAG”, the binding signal is reported as 7440 fluorescence intensity (a.u.). With “TACGAGTCAATTTATTCCGAAATAATATTGTCGTTAGAGTCGGAGTCACCTAGTGCAG” the binding signal was 5640 fluorescence intensity (a.u.). For “CGCCGCACAAATTAATTACACCTCGTAAACACAAATTAAGCGGAGTCACCTAGTGCAG”, the binding signal was 18600 fluorescence intensity (a.u.). For “TAATACTTAATTAATTATATGCTAAATGCTTCTTCGTTTTCGGAGTCACCTAGTGCAG”, the binding signal was 27300 fluorescence intensity (a.u.). For “TTTATAATAGTTAATATTTAATTGATCATTTGCTAATGAGCGGAGTCACCTAGTGCAG”, the binding signal was 24900 fluorescence intensity (a.u.).
